In PubChem BioAssay AID488969 (Vanderbilt High Throughput Screening Facility, 2010):
The full ranking holds about 110,000 compounds; the median of “z-score” is about -0.1, and the highest 2% start at about 2. Some of the results follow. Activity calls are given as the source filed them.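 How the source made its calls: active means z-score in the third read window above 3 or below -3; inactive means the rest.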

target: Metabotropic glutamate receptor 8 (Rattus norvegicus) (UniProt P70579); assay: rat mGluR8 modulators via GIRK flux, primary screen, cell-based, thallium flux, HTS (AID 488969); settings: HEK293 rat mGluR8, GIRK (G protein-gated inwardly rectifying potassium channel) thallium flux, FluoZin2; at 10 µM; stronger effect = higher value; submaximal glutamate (EC20) added with thallium
Sequence of UniProt P70579 (P70579 whole entry, looked up): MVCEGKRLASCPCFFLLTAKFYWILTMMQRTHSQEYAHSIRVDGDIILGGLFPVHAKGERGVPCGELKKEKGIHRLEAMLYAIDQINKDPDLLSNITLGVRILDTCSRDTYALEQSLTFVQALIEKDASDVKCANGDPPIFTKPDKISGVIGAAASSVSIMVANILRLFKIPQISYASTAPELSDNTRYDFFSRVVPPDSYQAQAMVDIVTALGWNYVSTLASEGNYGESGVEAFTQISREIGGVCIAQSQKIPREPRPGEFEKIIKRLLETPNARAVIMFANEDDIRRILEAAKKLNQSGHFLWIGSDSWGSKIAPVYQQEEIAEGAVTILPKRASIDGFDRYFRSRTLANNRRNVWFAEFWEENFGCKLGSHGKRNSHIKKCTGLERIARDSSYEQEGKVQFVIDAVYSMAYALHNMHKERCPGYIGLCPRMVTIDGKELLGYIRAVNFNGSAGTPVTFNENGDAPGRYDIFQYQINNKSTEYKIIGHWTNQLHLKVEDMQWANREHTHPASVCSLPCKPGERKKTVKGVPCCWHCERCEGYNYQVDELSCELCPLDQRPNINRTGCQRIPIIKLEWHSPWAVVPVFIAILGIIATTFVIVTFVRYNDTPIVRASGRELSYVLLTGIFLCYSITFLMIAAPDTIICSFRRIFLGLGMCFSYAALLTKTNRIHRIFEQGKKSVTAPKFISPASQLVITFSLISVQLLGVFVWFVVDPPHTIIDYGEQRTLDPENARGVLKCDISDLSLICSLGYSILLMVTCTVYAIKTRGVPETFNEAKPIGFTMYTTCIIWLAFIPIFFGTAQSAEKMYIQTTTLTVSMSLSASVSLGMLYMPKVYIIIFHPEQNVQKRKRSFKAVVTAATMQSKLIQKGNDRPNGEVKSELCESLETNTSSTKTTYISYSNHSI

How did the z-score turn out when `O=C(O)C1C2CCC(O2)C1C(=O)NCCC1=CCCCC1` (stereo not given) was run?
The z-score was 1.21.

`Cc1cccc(C(=O)N2CCc3cc(-c4nc(NC(=O)Cn5nnc6ccccc6c5=O)sc4C)ccc32)c1` was tested. Which z-score did it give?
Its z-score is -0.116.

How did the z-score turn out when `CCn1c2ccccc2c2cc(NC(=O)c3ccc(Br)o3)ccc21` was run?
Its z-score is -0.12.

With `COCCCNC(=S)N1CCN(c2ccc([N+](=O)[O-])cc2)CC1` as the compound, how does the z-score read?
Its z-score is -0.289.

With `COc1ccc(Cn2nnnc2C(c2cc3ccc(OC)cc3[nH]c2=O)N2CCC(C)CC2)cc1` (stereo not given) as the compound, how does the z-score read?
The z-score was -0.0941.

Which z-score does the source give for `COc1cccc(C(C2=C(O)CC(C)(C)CC2=O)C2C(=O)CC(C)(C)CC2=O)c1` (stereo not given) here?
Its z-score is -0.0504.

`N#C/C(=C/c1ccc2c(c1)OCO2)C(=O)NCCc1c[nH]c2ccccc12` was tested. Which z-score did it give?
The z-score was -0.115.

How did the z-score turn out when `COC(=O)C(NC(=O)c1ccccc1)(Nc1cc(C)cc(C)n1)C(F)(F)F` (stereo not given) was run?
The z-score was -0.0146.

How did the z-score turn out when `S=C(NN=C1C2CC3CC(C2)CC1C3)Nc1ccccc1` was run?
The z-score was active: 11.7.

For `CCC(C)n1c(S(=O)(=O)O)nc2ccccc21` (stereo not given), which z-score is on record?
The z-score was 1.41.

For `COc1ccc(C2Nc3ccccc3C(=O)N2O)cc1OC` (stereo not given), which z-score is on record?
The z-score was -0.145.

`COc1ccc(N(CC(=O)NCc2ccccc2OC)S(=O)(=O)c2c(C)nn(C)c2C)cc1` was tested. Which z-score did it give?
The z-score was -0.153.

How did the z-score turn out when `CCOc1cc(/C=N/NC(=O)c2ccncc2)ccc1OC(=O)c1ccc([N+](=O)[O-])cc1` was run?
The z-score was -0.0809.

Which z-score does the source give for `Cc1ccc2nc(CCc3nc4ccc(C)cc4o3)oc2c1` here?
The z-score was 0.382.

For `CC1C(=O)CC(c2ccccc2)NC1c1ccccc1` (stereo not given), which z-score is on record?
The z-score was -0.85.

With `C/C(=N\NC(=O)c1ccncc1)c1cc2ccccc2oc1=O` as the compound, how does the z-score read?
Its z-score is 0.493.

Which z-score does the source give for `COc1ccccc1CNC(=O)CSCc1cnn(-c2ccccc2)c1-n1cccc1` here?
The z-score was 0.000619.

For `Cc1onc(-c2ccccc2Cl)c1C(=O)NC(=S)NCCc1ccccc1`, which z-score is on record?
Its z-score is 2.63.

With `CC1CN(C2CCN(C(=O)c3cccc(Cl)c3)CC2)CC(C)O1` (stereo not given) as the compound, how does the z-score read?
Its z-score is -0.0147.

How did the z-score turn out when `Cc1cc(C)cc(NC(=S)NC(=O)CCN2C(=O)c3ccccc3C2=O)c1` was run?
The z-score was 0.174.

Which z-score does the source give for `CCOc1cc(C)c(Cl)cc1S(=O)(=O)N1CCCC1` here?
The z-score was 0.0735.

Which z-score does the source give for `O=C(c1ccco1)N1CCN(Cc2nc3ccccc3c(=O)n2-c2ccc(F)cc2)CC1` here?
The z-score was 0.209.

`CCCCOC(=O)c1ccc(-c2ccc(/C=N/NC(=S)NCC)o2)cc1` was tested. Which z-score did it give?
Its z-score is -0.116.

For `Cc1[nH]c2ccccc2c1C(Nc1nccs1)c1ccncc1` (stereo not given), which z-score is on record?
The z-score was -0.266.

How did the z-score turn out when `CCNC(=S)NNC(=O)c1ccccc1Cl` was run?
The z-score was -0.211.

`CC(Oc1ccc(Cl)cc1)C(=O)/C=C/N(C)C` (stereo not given) was tested. Which z-score did it give?
The z-score was 0.0414.

How did the z-score turn out when `Cc1ccc(/C=N/NC(=O)CCSc2ccccc2)cc1` was run?
The z-score was 0.31.

How did the z-score turn out when `CC(Sc1nc(-c2ccccc2)cc(C(F)(F)F)n1)C(=O)NCc1ccco1` (stereo not given) was run?
Its z-score is 1.22.

`O=C(CSc1nc2ccccc2c(=O)n1-c1ccccc1)NCc1ccco1` was tested. Which z-score did it give?
The z-score was -1.73.

For `Fc1cccc(CSc2nc3ncccc3[nH]2)c1`, which z-score is on record?
Its z-score is -0.0206.

Which z-score does the source give for `CC(C)C1=C2CCCCC2NC(=O)N1` (stereo not given) here?
The z-score was 0.143.

Which z-score does the source give for `CCc1oc2c(C)c(O)ccc2c(=O)c1-c1ccc2ccccc2n1` here?
The z-score was -0.0989.

How did the z-score turn out when `COc1ccc(CNC(=O)C(c2ccncc2)N(C(=O)Cc2cccs2)c2ccccc2C)cc1` (stereo not given) was run?
The z-score was -0.607.

For `CC1Cc2ccccc2N1S(=O)(=O)c1cccs1` (stereo not given), which z-score is on record?
The z-score was -1.12.

Which z-score does the source give for `Cc1cccc(OCCOCCSc2ncccn2)c1` here?
The z-score was 0.623.

Which z-score does the source give for `c1ccc(-c2nc(CSc3nnc(-c4cccs4)o3)cs2)cc1` here?
Its z-score is 0.246.

For `COC(=O)c1cc2oc(C)cc2n1CC(=O)Nc1ccc(C)c(C)c1`, which z-score is on record?
Its z-score is -0.125.

For `COc1cccc(C(=O)N(CN2CCCC2=O)c2cccc(Cl)c2)c1OC`, which z-score is on record?
Its z-score is -0.257.

Which z-score does the source give for `Cc1cc(N2C(=O)CCC2=O)n(-c2ccccc2)n1` here?
Its z-score is -0.0495.

Which z-score does the source give for `O=C1CCC(=O)N1CCC(c1ccc(F)cc1)c1ccco1` (stereo not given) here?
Its z-score is 0.178.

With `O=C(N/N=C/c1c[nH]c2ccccc12)C1CC1(c1ccccc1)c1ccccc1` (stereo not given) as the compound, how does the z-score read?
Its z-score is -0.618.

`O=C(CSc1nc(N2CCCCC2)nc(N2CCCCC2)n1)c1ccccc1` was tested. Which z-score did it give?
The z-score was -0.0244.

For `O=C(O/N=C\c1ccc(N2CCCCC2)c([N+](=O)[O-])c1)c1ccc(Cl)cc1Cl`, which z-score is on record?
Its z-score is -0.494.

`COc1ccc(NC(=O)c2nc3nccc(C)n3n2)cn1` was tested. Which z-score did it give?
Its z-score is -0.0689.

With `Cc1cccnc1NC(=O)C1CCCN(S(=O)(=O)c2ccc3c(c2)oc(=O)n3C)C1` (stereo not given) as the compound, how does the z-score read?
The z-score was 0.166.

How did the z-score turn out when `CC1(C)CC(c2nc(-c3ccc(Cl)cc3)cs2)CCS1` (stereo not given) was run?
The z-score was 0.117.

`CN(C)S(=O)(=O)c1ccc(C(=O)Nc2ccc(F)cc2F)cc1` was tested. Which z-score did it give?
The z-score was -0.255.

`CC(C)c1ccccc1NC(=O)COc1ccc(C(=O)NCCc2ccccc2)cc1` was tested. Which z-score did it give?
The z-score was -0.165.

Which z-score does the source give for `CN(C)CC(C)(C)CNC(=S)NCc1ccc2c(c1)OCO2` here?
Its z-score is -0.249.

Which z-score does the source give for `O=C(c1ccc(C(=O)N2CCCCCC2)cc1)N1CCCCCC1` here?
The z-score was 0.224.

For `Cc1ccc(-c2csc(N3N=C(c4ccccc4)/C(=C\c4ccc(N(C)C)cc4)C3=O)n2)cc1`, which z-score is on record?
The z-score was 0.277.

How did the z-score turn out when `CCOC(=O)c1cc(-c2ccccc2)sc1NC(=S)Nc1cccc(C)n1` was run?
The z-score was -0.085.

With `O=C(N/N=C/c1cc2ccccc2nc1Cl)[C@H]1C[C@@H]1c1ccccc1` as the compound, how does the z-score read?
Its z-score is -0.657.

With `COC(=O)c1ccc(CS(=O)(=O)c2ccccc2C)o1` as the compound, how does the z-score read?
The z-score was 0.118.

With `CC(C)(C)NC(=O)/C=N/O` as the compound, how does the z-score read?
Its z-score is -0.25.
